# Results published in PubChem BioAssay AID1347120 (National Center for Advancing Translational Sciences (NCATS), 2019).
# Out of some 390,000 compounds screened, about 930 (0.24%) were called active. Inconclusive means that the source gave no clear call. Such entries were picked first, then a sample of the others. Calls follow the shape of the dose curve; as a rule, active = well fitted activation curve with a large enough effect; inconclusive = small, poorly fitted or top-dose-only effect; inactive = no such curve, though single readings can be large or run the other way. Where the call is inconclusive, the potency comes from a doubtful curve fit.
# Assay: qHTS for Suppressors of FUS Proteinopathy: Primary screen using FUS-linked yeast assay; also: nearly all actives have a fitted effect of over 55% in size
# Details: S. cerevisiae FUS-expressing, OD600, 24 h; Potency: growth rescue; series mostly up to 76.6 µM
# In short: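 FUS-expressing yeast, raffinose-pregrown, induced in 2% galactose minimal medium at OD 0.005; compounds in a dilution series, 24hr at 30C. Growth restoration read as absorbance at 600 nm. CP55940 positive control, DMSO negative.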
# Potency is read from the fitted curve at half-maximal effect; tags tell the direction and shape of the fitted curve.
row,SMILES,Potency
1,O=C(Cc1cc(=O)[nH][nH]1)N/N=C/C(Cl)=C/c1ccccc1,"inconclusive: 14.1 µM [activator, partial curve, poor fit]"
2,COc1ccc(CNC(=O)CSc2nc3c([nH]2)c(=O)n(C)c(=O)n3C)cc1,inactive
3,O=C(C[C@H]1C/C=C\CC[C@@H](Cc2ccc(F)cc2)C(=O)OC[C@H]2CCCN2C1=O)N[C@@H](CO)Cc1ccccc1,"inconclusive: 15.8 µM [activator, partial curve]"
4,CC[C@@]12C(=O)N(c3cccc(F)c3)C(=O)N1[C@H](c1ccc(Cl)cc1)[C@@H]1C(=O)N(C3CCCCC3)C(=O)[C@@H]12,"inconclusive: 7.94 µM [activator, partial curve]"
5,COc1ccc(C2=Nc3ccccc3N(C(=O)c3ccc4c(c3)OCO4)C2C(=O)Nc2c(C)cccc2C)cc1 (centres undefined),"inconclusive: 35.5 µM [activator, single point]"
6,COC(=O)c1c(-c2cccs2)csc1NC(=O)c1ccc(C(C)(C)C)cc1,inactive
7,COc1ccc(-c2nnc(SCC(=O)c3ccc(NC(C)=O)cc3)o2)cc1OC,inactive
8,CCN1CCN(C(=O)c2ccc(CS(=O)Cc3ccc(C)cc3)o2)CC1 (centres undefined),inactive
9,COC(=O)[C@@]12CCCCC=C1N(CCc1ccc(Cl)cc1)C(=O)[C@H]2CC(=O)NCC12CC3CC(CC(C3)C1)C2,inactive
10,Cc1ccc(C)c(SCc2noc(C(=O)NCC3CCCO3)c2C(=O)O)c1 (centres undefined),inactive
11,COc1ccc2cc(C(c3nnnn3C3CCCC3)N3CCc4ccccc4C3)c(=O)[nH]c2c1 (centres undefined),"inconclusive: 44.7 µM [activator, partial curve, poor fit]"
12,Cn1c(C(=O)NCCCN2CCc3ccccc3C2)cc2c(=O)n(C)c3ccccc3c21,"inconclusive: 14.1 µM [activator, partial curve, poor fit]"
13,Cc1cccc(Cc2c(C)nc3nc(SCc4cccc(F)c4)nn3c2C)c1,"inconclusive: 25.1 µM [activator, single point]"
14,CC(C)(C)S(=O)N1Cc2cc(C(=O)NCc3ccc4c(c3)OCO4)nc(-c3cccc(-c4ccccc4)c3)c2[C@@H]1CCO (some centres undefined),"inconclusive: 15.8 µM [activator, partial curve]"
15,Cc1ccc(NC(=O)CNc2cccc(Br)c2)cc1S(=O)(=O)N1CCOCC1,"inconclusive: 50.1 µM [activator, single point]"
16,NC(=O)c1ccc(N2CCN(c3ncc(C(F)(F)F)cc3Cl)CC2)cc1,inactive
17,CSC[C@H]1CN(CCc2ccccc2)C(=O)[C@@H]1CC(=O)Nc1ccccc1,inactive
18,Cc1ccccc1NC(=O)C1C2C=CC(C3CC23)C1C(=O)O (centres undefined),inactive
19,Cc1ccc(C(c2nnnn2C2CCCC2)N2c3ccccc3CC2C)cc1 (centres undefined),"inconclusive: 12.6 µM [activator, partial curve, poor fit]"
20,COc1cc(C2Nc3ccc4ccccc4c3C3=C2C(=O)CC(C)(C)C3)ccc1OC(C)C(=O)O (centres undefined),"inconclusive: 3.55 µM [activator, full curve, poor fit]"

row,SMILES,Potency
1,C=CC[C@H](CC(=O)N(CCO)Cc1ccccc1)C(=O)N[C@@H](COC(=O)[C@H](CC=C)CC(=O)OC(C)(C)C)Cc1c[nH]c2ccccc12,"inconclusive: 35.5 µM [activator, single point]"
2,CC1(C)OC(=O)C2=C(CC(CCc3ccccc3)OC2c2ccccc2)O1 (centres undefined),"inconclusive: 6.31 µM [activator, full curve, poor fit]"
3,CCOc1ccc(-c2[nH]ncc2Oc2ccccc2OC)c(O)c1,"inconclusive: 12.6 µM [activator, partial curve, poor fit]"
4,CC(C)c1nc2sc3c(N4CCCCC4)ncnc3c2c2c1CCCC2,inactive
5,CCC(C)NC(=O)C1CCC(CNS(=O)(=O)c2ccc3c(c2)CC(C)N3C(=O)C2CC2)CC1 (centres undefined),"inconclusive: 35.5 µM [activator, partial curve, poor fit]"
6,Cc1cc(C)n2nc(SCc3ccc(F)cc3Cl)nc2n1,inactive
7,Cc1ccccc1-c1cc(C(=O)Nc2sc(C(=O)OC(C)C)c(C)c2C#N)c2ccccc2n1,"inconclusive: 6.31 µM [activator, full curve, poor fit]"
8,CNc1c(NS(=O)(=O)c2ccc(F)cc2)c(=O)oc2ccccc12,inactive
9,Cn1c(N=Nc2ccc(N3CCOCC3)cc2)[n+](C)c2ccccc21,"inconclusive: 50.1 µM [activator, single point]"
10,N#Cc1c2c(c(NCc3ccco3)n3c1nc1ccccc13)CCC2,"inconclusive: 7.08 µM [activator, single point]"
11,Cc1ccc(Cl)cc1N1CCN(C(=O)c2cn(C)c3ccc(S(=O)(=O)N4CCCCC4)cc3c2=O)CC1,inactive
12,CC(C)(C)OC(=O)n1cc(-c2ccccc2)c2c(-c3ccccc3)c(O)ccc21,inactive
13,Cc1ccc(CCNC(=O)c2ccc(CSc3nc4ccncc4n3Cc3ccc(F)cc3)cc2)cc1,"inconclusive: 44.7 µM [activator, single point]"
14,O=C(NCCOc1ccc(Cl)cc1)c1cccc(S(=O)(=O)N2CCCC2)c1,"inconclusive: 28.2 µM [activator, single point]"
15,COC(=O)c1sc2ccccc2c1S(=O)(=O)N1CCN(c2ccc(C(C)=O)cc2)CC1,"inconclusive: 10 µM [activator, single point]"
16,Cc1cccc(N(C(=O)c2ccc(Cl)cc2)C2CS(=O)(=O)CC2OC(=O)c2ccc(Cl)cc2)c1 (centres undefined),"inconclusive: 25.1 µM [activator, partial curve, poor fit]"
17,COc1cc(C2CC(=O)N(CC(=O)Nc3ccccc3F)c3ccccc3S2)cc(OC)c1OC (centres undefined),"inconclusive: 20 µM [activator, partial curve, poor fit]"
18,Cc1ccc(-c2noc(CSc3nnnn3C3CCCCC3)n2)cc1,"inconclusive: 17.8 µM [activator, partial curve]"
19,CCCCC[C@@H](C)N1C[C@@H](COCc2ccccc2)Oc2cc(N3CC[C@H](O)C3)ccc2S1(=O)=O,"inconclusive: 28.2 µM [activator, partial curve, poor fit]"
